Among all 48,000 compounds or so, about 550 (1.1%) were called active. About 4% were inconclusive and are not listed. No stated cut-off is given here; in the data, active means potency below about 15 µM; inconclusive means mostly about 16 µM to 33 µM; inactive means weaker than that. This is one part of the list.
molecular target: Lysosomal acid glucosylceramidase (Homo sapiens) (UniProt P04062); assay: Glucocerebrosidase; conditions: purified enzyme, resorufin glucoside fluorescence (screen aimed at inhibitors), 20 min;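 further: the screen sought inhibitors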
Sequence of UniProt P04062 (P04062 whole entry, looked up): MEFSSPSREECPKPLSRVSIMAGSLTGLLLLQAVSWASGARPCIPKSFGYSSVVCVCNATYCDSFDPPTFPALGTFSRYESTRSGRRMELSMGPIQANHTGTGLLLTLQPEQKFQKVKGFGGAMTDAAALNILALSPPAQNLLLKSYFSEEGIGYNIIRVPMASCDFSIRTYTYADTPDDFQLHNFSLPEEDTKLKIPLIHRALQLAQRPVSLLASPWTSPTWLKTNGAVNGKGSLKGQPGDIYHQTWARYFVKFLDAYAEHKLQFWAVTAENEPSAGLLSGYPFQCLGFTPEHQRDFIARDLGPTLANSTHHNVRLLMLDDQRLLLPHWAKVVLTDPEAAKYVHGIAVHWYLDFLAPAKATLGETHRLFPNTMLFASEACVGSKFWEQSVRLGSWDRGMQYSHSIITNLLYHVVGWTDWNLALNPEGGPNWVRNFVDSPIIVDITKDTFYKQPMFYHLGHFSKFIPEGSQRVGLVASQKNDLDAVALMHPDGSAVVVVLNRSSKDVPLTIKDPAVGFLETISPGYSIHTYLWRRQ
In short: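 Normal human glucocerebrosidase (0.2 nM final) was assayed with resorufin β-D-glucopyranoside (30 uM final) in 50mM citric acid/KH2PO4, 10mM sodium taurocholate, 0.01% tween-20, pH 5.9. Compounds were titrated; fluorescence (Ex 548, Em 600) read after 20 min at RT.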
Potency means the concentration at half of the fitted maximal effect.

Potency, inactive:
CC(=O)N1C(c2ccccc2)CC(=O)OC1c1ccc2c(c1)OCO2 (stereo not given) > 76.9 µM, N#CCSc1nnc(Cc2cccs2)n1C1CCCCC1 > 76.9 µM, COc1ccc(S(=O)(=O)Nc2ccccc2C(F)(F)F)cc1 > 76.9 µM, CN(C)C(=O)c1c(-c2ccccc2)oc2ccc(O)cc12 > 76.9 µM, Cc1ccc(S(=O)(=O)N2CCCC2C(=O)O)cc1 (stereo not given) > 76.9 µM, CC(C)n1c(SCC(=O)Nc2ccccc2N2CCCCC2)nc2c1c(=O)n(C)c(=O)n2C > 76.9 µM, O=C(c1ccco1)N1CCC(n2nnc3ccccc32)CC1 > 76.9 µM, O=C(NCc1ccco1)c1cnn2c(C(F)F)cc(-c3ccccc3)nc12 > 76.9 µM, COC(=O)c1cc(-c2c(C)oc3cc(OC)ccc3c2=O)c(C)o1 > 76.9 µM, Cc1ccc(C)c(N2C(=O)CN=C2Nc2ccccc2Cl)c1 > 76.9 µM, CCOc1cc(CNn2cnnc2)ccc1OCC(=O)NC1CCCCC1 > 76.9 µM, Cc1cccc(NC2=NCC(=O)N2Cc2ccccc2)c1 > 76.9 µM, COc1cc(-c2nc(S(=O)(=O)c3ccccc3)c(N3CCOCC3)o2)cc(OC)c1OC > 76.9 µM, Nc1nonc1-c1noc(N2CCCCC2)n1 > 76.9 µM, Cc1nc(C)c(-c2csc(Nc3cccnc3)n2)s1 > 76.9 µM, COc1cc(-c2nc(Cc3ccccc3Cl)no2)cc(OC)c1OC > 76.9 µM, CC1=C(C(=O)OCC2CCCO2)C(c2ccc(O)cc2)NC(=O)N1 (stereo not given) > 76.9 µM, Cc1ccc(S(=O)(=O)N2CCN(C3CC(=O)N(Cc4ccccc4)C3=O)CC2)cc1C (stereo not given) > 76.9 µM, CCOC(=O)N1CCC(NC(=O)c2cc(S(=O)(=O)N3CCCC3)cn2C)CC1 > 76.9 µM, COC(=O)C1=C(C)NC(C)=C(C(=O)OC)C1c1cc2cc(C)ccc2[nH]c1=O > 76.9 µM, CCCOc1ccc(C2/C(=C(/O)c3ccc(F)cc3)C(=O)C(=O)N2CCCN(C)C)cc1 (stereo not given) > 76.9 µM, CC(C(=O)NCc1ccccc1)N1C(=O)CN(C)C(=O)c2ccccc21 (stereo not given) > 76.9 µM, O=C(c1ccco1)N1CCN(C(=O)C2CCCN(S(=O)(=O)Cc3ccccc3)C2)CC1 (stereo not given) > 76.9 µM, O=C(CCCc1cccs1)Nc1nc2c(s1)CCCC2 > 76.9 µM, C=CCSC1=C(C#N)C(c2ccccc2)CC(=O)N1 (stereo not given) > 76.9 µM

Reference: PubChem BioAssay AID360 (National Center for Advancing Translational Sciences (NCATS), 2006)
